{
  "source": "PubChem BioAssay AID686978",
  "about": "(National Center for Advancing Translational Sciences (NCATS), 2013)",
  "note": "In all, about 420,000 compounds went through this assay and about 64,000 (15%) were called active. This list was built around the results that the source calls inconclusive (neither active nor inactive); the mix of calls is not that of the screen. Calls come from the whole dose curve; as a rule, active = well fitted inhibition curve with a large enough effect; inconclusive = small, poorly fitted or top-dose-only effect; inactive = flat fitted curve, though single readings scatter. Potencies of inconclusive entries are left out as doubtful fits. % is set by controls: 0 for no effect and ±100 for the full control effect; potency is the fitted concentration of half-maximal effect; tags give direction and shape of the fitted curve.",
  "data": [
    {"test": "qHTS for Inhibitors of human tyrosyl-DNA phosphodiesterase 1 (TDP1): qHTS in cells in absence of CPT; note: nearly all actives have a fitted effect of over 55% in size", "details": "DT40 Tdp1-/- hTDP1 cells, no CPT, ATP luminescence, 48 h; activity change, negative = growth inhibition: at 46.2 µM (top of the series)", "in_short": "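Chicken DT40 Tdp1-/- cells stably complemented with human TDP1 were seeded at 400 cells/well with DMSO in place of 20 nM camptothecin. After compound pinning, cells grew at least 48 hr at 37 °C; viability read by CellTiter-Glo luminescence.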", "values": [
      {"smiles": "COC(=O)c1ccc(C(C(=O)NC2CCCCC2)N(CCc2ccccc2)C(=O)Cc2cccs2)cc1", "note": "(stereo unspecified)", "Potency": "active: 6.51 µM"},
      {"smiles": "CCOC(=O)c1[nH]c2ccccc2c1NC(=O)c1ccco1", "Potency": "inconclusive [inhibitor, single point]"},
      {"smiles": "CC(C)C(=O)Nc1ccc(/C=C2\\C=Cc3ccccc32)cc1", "Potency": "inconclusive [inhibitor, single point]"},
      {"smiles": "COc1cccc(NS(=O)(=O)c2c(C)n(C)c(=O)n(C)c2=O)c1", "activity change, negative = growth inhibition": "inactive: 9.38%"},
      {"smiles": "CCOc1ccc(N2C(=O)CNC2=S)cc1", "activity change, negative = growth inhibition": "inactive: 1.88%"},
      {"smiles": "COc1ccc(CCNC(=O)c2ccc3c(c2)N(Cc2ccc(F)cc2)C(=O)c2ccccc2S3(=O)=O)cc1OC", "Potency": "active: 11.6 µM"},
      {"smiles": "Cc1ccc(CC2S/C(=N/c3ccccn3)NC2=O)cc1", "note": "(stereo unspecified)", "activity change, negative = growth inhibition": "inactive: -15.2%"},
      {"smiles": "CC(=O)c1cccc(N(CC(=O)Nc2ccc(S(=O)(=O)N3CCCC3)cc2)S(C)(=O)=O)c1", "Potency": "inconclusive [inhibitor, single point]"},
      {"smiles": "CCOC(=O)c1ccc(NC(=O)Cn2cc(C(=O)C3CC3)c3ccccc32)cc1", "Potency": "inconclusive [inhibitor, partial curve]"},
      {"smiles": "Cc1ccsc1C(C(=O)NC1CCCCC1)N(C(=O)c1csnn1)C1CC1", "note": "(stereo unspecified)", "activity change, negative = growth inhibition": "inactive: -26%"},
      {"smiles": "c1ccc(CN2CN=C(Nc3nc4ccccc4s3)NC2)cc1", "Potency": "inconclusive [inhibitor, single point]"},
      {"smiles": "Cc1cc(Cl)c2oc(C(=O)NCCN3CCCCC3CO)c(C)c2c1", "note": "(stereo unspecified)", "Potency": "inconclusive [inhibitor, single point]"},
      {"smiles": "Cc1ccc(S(=O)(=O)n2cc(C=O)c3ccccc32)cc1", "Potency": "inconclusive [inhibitor, single point]"},
      {"smiles": "CCN(c1ccccc1)S(=O)(=O)c1ccc2[nH]cc(C(=O)NCCOC)c(=O)c2c1", "Potency": "inconclusive [inhibitor, single point]"},
      {"smiles": "Cc1c(C(=O)Nc2cccc(C(F)(F)F)c2)sc2nc[nH]c(=O)c12", "Potency": "active: 20.6 µM"},
      {"smiles": "COc1cccc(/C=C2\\SC(=S)N(NS(=O)(=O)c3ccccc3)C2=O)c1OC", "activity change, negative = growth inhibition": "inactive: -0.039%"},
      {"smiles": "COc1ccc(-c2ocnc2C(=O)Nc2ccc(N3CCOCC3)cc2N2CCOCC2)cc1OC", "Potency": "inconclusive [inhibitor, single point]"},
      {"smiles": "COCCN(C(=O)COC(=O)/C=C/c1ccc(OC)c(OC)c1)c1c(N)n(Cc2ccccc2)c(=O)[nH]c1=O", "activity change, negative = growth inhibition": "inactive: -3.29%"},
      {"smiles": "Cc1cc(C)c2nc(N(CCCN(C)C)C(=O)c3ccc(S(=O)(=O)N4CCCCCC4)cc3)sc2c1", "Potency": "inconclusive [inhibitor, single point]"},
      {"smiles": "Cc1ccccc1Nc1c(-c2c(F)cccc2Cl)nc2ccc(Br)cn12", "Potency": "inconclusive [inhibitor, partial curve]"},
      {"smiles": "Cc1ccc(S(=O)(=O)N(C)CC(=O)NNC(=O)CCC(=O)c2ccc(F)cc2)cc1", "Potency": "inconclusive [inhibitor, partial curve]"},
      {"smiles": "COC(=O)[C@@H]1CCCN1C(=O)c1cc(NC(=O)C2CCC2)c2c(c1)nc(-c1ccncc1)n2C", "activity change, negative = growth inhibition": "inactive: -13%"},
      {"smiles": "CCOC(=O)C1=C(SCC(=O)Nc2ccccc2)NC(=O)C(C#N)C12CCCCC2", "note": "(stereo unspecified)", "Potency": "inconclusive [inhibitor, single point]"},
      {"smiles": "CSCCC(NC(=O)c1ccc(Cl)cc1Cl)C(=O)NCC(c1cccs1)N(C)C", "note": "(stereo unspecified)", "activity change, negative = growth inhibition": "inactive: -23.4%"},
      {"smiles": "Cc1cccc(N2CCN(C(=O)CSc3ccsc3[N+](=O)[O-])CC2C)c1", "note": "(stereo unspecified)", "Potency": "inconclusive [inhibitor, single point]"},
      {"smiles": "CCOC(=O)c1ccc(NC(=O)CCCn2c(=O)c3cccn3c3ccccc32)cc1", "Potency": "inconclusive [inhibitor, partial curve]"},
      {"smiles": "O=C(NCc1ccccc1)C(c1ccccc1)n1c(C2CC2)nc2ccccc21", "note": "(stereo unspecified)", "Potency": "inconclusive [inhibitor, single point]"},
      {"smiles": "CCc1ccccc1NC(=O)c1ccc2nc(N3CCOCC3)sc2c1", "activity change, negative = growth inhibition": "inactive: -23%"},
      {"smiles": "COCCn1c(=O)c(-c2cccs2)nc2cnc(N(C)C)nc21", "activity change, negative = growth inhibition": "inactive: 2.61%"},
      {"smiles": "Cc1ccc(-n2ncc3c(NCCCN4CCOCC4)ncnc32)cc1C", "Potency": "active: 23.1 µM"},
      {"smiles": "Nc1nc2ncccn2c1-c1ccc(F)cc1", "activity change, negative = growth inhibition": "inactive: -20.1%"},
      {"smiles": "CC1=CC(C/C(C)=C/COc2ccc3ccc(=O)oc3c2)OC1=O", "note": "(stereo unspecified)", "Potency": "inconclusive [inhibitor, single point]"},
      {"smiles": "Cc1ccc(/C=C(\\C#N)c2nc(-c3ccc(-c4ccccc4)cc3)cs2)cc1", "activity change, negative = growth inhibition": "inactive: -24.1%"},
      {"smiles": "O=C(COc1ccc(/C=N/NC(=O)C(=O)N2CCCCCC2)cc1)Nc1ccccc1Cl", "Potency": "inconclusive [inhibitor, single point]"},
      {"smiles": "O=C(Nn1cnnc1)c1ccc(Cl)cc1", "activity change, negative = growth inhibition": "inactive: -19.6%"},
      {"smiles": "COc1ccc(CC(N)c2csc(Nc3cc(NCc4ccco4)ncn3)n2)cc1", "note": "(stereo unspecified)", "Potency": "active: 13 µM"},
      {"smiles": "CCOc1ccccc1CNC(=O)CCc1c(C)nn(-c2ccc(N3CCCC3)nn2)c1C", "Potency": "active: 20.6 µM"},
      {"smiles": "CC1(C(=O)Nc2cccc3ccccc23)CCN1C(=O)Cc1ccc(Cl)cc1Cl", "note": "(stereo unspecified)", "Potency": "inconclusive [inhibitor, single point]"},
      {"smiles": "O=C(CCC(=O)Nc1ccc(F)cc1)N/N=C/c1ccccc1O", "Potency": "inconclusive [inhibitor, single point]"},
      {"smiles": "C#CCSc1nncn1C(=O)/C=C/c1ccccc1", "Potency": "inconclusive [inhibitor, single point]"},
      {"smiles": "Cc1ccc(Nc2nc(C(=O)N3CCC(C(=O)NCc4ccccc4)CC3)cs2)cc1", "Potency": "inconclusive [inhibitor, single point]"},
      {"smiles": "COc1ccc(C(=O)COC(=O)c2cc([N+](=O)[O-])ccc2N2CCOCC2)c(OC)c1", "Potency": "inconclusive [inhibitor, partial curve, poor fit]"},
      {"smiles": "COc1ccccc1CNC(=O)Cn1c(=O)nc(-c2ccccc2F)c2cc(Cl)ccc21", "Potency": "active: 6.51 µM"},
      {"smiles": "CCOC(=O)c1cc(-c2sc(NC(=O)c3ccccc3)nc2C)n(CCO)n1", "Potency": "active: 6.51 µM"},
      {"smiles": "Cc1ccc(-n2c(=O)c3cccnc3n2CC(=O)Nc2cc(C)cc(C)c2)cc1", "activity change, negative = growth inhibition": "inactive: -100%"},
      {"smiles": "CC(C)(C)NC(=O)COc1ccc2oc3c(c2c1)CCCC3", "Potency": "inconclusive [inhibitor, partial curve, poor fit]"}
    ]}
  ]
}
